Where “and” joins values, the source holds several entries; their conditions need not be identical. Identical values can stand only once. The shares of active, inactive and inconclusive entries below differ from those in the screen. For some assays here: Potencies beside an inconclusive call are fits to weak or partial responses and may not hold up. Calls of active or inactive are those of the source. Calls come from the whole dose curve; as a rule, active = well fitted curve in the direction sought with a large enough effect; inconclusive = small, poorly fitted or top-dose-only effect, or another doubt; inactive = no such curve, though single readings can be large; an effect the other way counts as inactive or inconclusive.
Experiments:
[1] = Viability qHTS for spleen associated tyrosine kinase inhibitor (SYKi) naive MV4-11 cells (AID 1963823); settings: MV4-11 AML viability, CellTiter-Glo luminescence, 72 h; series mostly up to 45 µM; note: nearly all actives have a fitted effect of over 40% in size
Procedure, shortened: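 Luminescence from CellTiter-Glo, developed 10 min at room temperature, gave viability of MV4-11 cells never exposed to SYK inhibitor. Cells (500/well) had been incubated with compounds for 72 hr under standard culture conditions.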

[2] = Viability qHTS for spleen associated tyrosine kinase inhibitor (SYKi) drug resistant MV4-11 cells (AID 1963824); note: nearly all actives have a fitted effect of over 35% in size
Procedure, shortened: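 SYK-inhibitor-resistant MV4-11 AML cells were seeded at 500 per well onto compound and cultured 72 hours (37 °C, 5% CO2). CellTiter-Glo was then added, and after 10 min at room temperature, luminescence gave viability.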

[3] = Quantitative highthroughput screen to assess conditional lethalithy of NOMO1 cells grown in RPMI1640 with untreated serum (RPMI+s) (AID 1963876); settings: NOMO1 AML cells in RPMI+serum, CellTiter-Glo viability, 48 h; viability: at 45.8 µM (top of the series); note: nearly all actives have a fitted effect of over 35% in size
Procedure, shortened: (§1)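 Each medium arm—HPLM with 10% dialyzed FBS, or RPMI1640 with 5 mM glucose and 10% untreated or dialyzed FBS—was screened against an 11-point, 3-fold compound titration for 48 h at 37 °C, with CellTiter-Glo luminescence as endpoint.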

[4] = Quantitative highthroughput screen to assess conditional lethalithy of NOMO1 cells grown in Human Plasma-Like Medium with dialyzed fetal bovine serum (HPLM+ds) (AID 1963878); settings: NOMO1 AML cells in HPLM+ds, CellTiter-Glo viability, 48 h; viability: at 45.8 µM (top of the series); note: nearly all actives have a fitted effect of over 35% in size
Procedure, shortened: as §1

[5] = Quantitative highthroughput screen to assess conditional lethalithy of P12 Ichikawa cells grown in RPMI1640 with untreated serum (RPMI+s) (AID 1963881); settings: Potency: viability; note: nearly all actives have a fitted effect of over 35% in size
Procedure, shortened: as §1

[6] = Quantitative highthroughput screen to assess conditional lethalithy of SEM cells grown in Human Plasma-Like Medium with dialyzed fetal bovine serum (HPLM+ds) (AID 1963882); note: nearly all actives have a fitted effect of over 35% in size
Procedure, shortened: as §1

[7] = Quantitative highthroughput screen to assess conditional lethalithy of SEM cells grown in RPMI1640 with unreated serum (RPMI+s) (AID 1963883); settings: SEM B-ALL cells, CellTiter-Glo viability, 48 h; viability: at 45.8 µM (top of the series); note: nearly all actives have a fitted effect of over 35% in size
Procedure, shortened: as §1

[8] = Cellular viability qHTS for adrenocortical cancer (ACC) cell line SW-13 (AID 1963989); settings: SW-13 ACC cells viability, CellTiter-Glo, 48 h; activity (max response): stronger effect = lower value; note: nearly all actives have a fitted effect of over 65% in size
Procedure, shortened: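 48 h treatment, SW-13 in ITS/DMEM serum-free; doses up to 46 uM; readout CellTiter-Glo luminescence; curve fit four-parameter logistic.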

[9] = Quantitative highthroughput screen to assess conditional lethalithy of P12 Ichikawa cells grown in RPMI1640 with dialyzed fetal bovine serum (RPMI+ds) (AID 1963880); settings: Potency: P12-Ichikawa viability; note: nearly all actives have a fitted effect of over 35% in size
Procedure, shortened: as §1

[10] = Cellular viability qHTS for adrenocortical cancer (ACC) cell line NCI-H295R (AID 1963990); settings: CellTiter-Glo ATP luminescence, 48 h; series mostly up to 46.1 µM; note: nearly all actives have a fitted effect of over 60% in size
Procedure, shortened: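 Compound titrations (up to 46 uM final) are applied to NCI-H295R cultures for 48 h at 37C. Viable cell number is estimated by CellTiter-Glo signal, normalised to DMSO and doxorubicin controls.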

[11] = Quantitative highthroughput screen to assess conditional lethalithy of SEM cells grown in RPMI1640 with dialyzed fetal bovine serum (RPMI+ds) (AID 1963884); settings: SEM B-ALL cells, RPMI+dialyzed FBS, CellTiter-Glo viability, 48 h; viability: at 45.8 µM (top of the series); note: nearly all actives have a fitted effect of over 35% in size
Procedure, shortened: as §1

[12] = Quantitative highthroughput screen to assess conditional lethalithy of P12 Ichikawa cells grown in Human Plasma-Like Medium with dialyzed fetal bovine serum (HPLM+ds) (AID 1963879); settings: Potency: viability; note: nearly all actives have a fitted effect of over 35% in size
Procedure, shortened: as §1
Potency is the fitted concentration of half-maximal effect; tags give direction and shape of the fitted curve.

SMILES | Potency [1] | Potency [2] | Potency [3] | Potency [4] | Potency [5] | Potency [6] | Potency [7] | Potency [8] | Potency [9] | Potency [10] | Potency [11] | Potency [12]
Cc1[nH]nc2ccc(-c3cncc(OC[C@@H](N)Cc4ccccc4)c3)cc12 | active: 82 nM and active: 132 nM | inconclusive: 0.235 µM [cytotoxic, full curve] | active: 2.96 µM | active: 1.66 µM | active: 2.96 µM | active: 1.18 µM | active: 2.09 µM | active: 0.562 µM | – | – | – | –
COc1c(N2CCNC(C)C2)c(F)cc2c(=O)c(C(=O)O)cn(C3CC3)c12 (stereo unspecified) | inconclusive: 0.9 nM and active: 18.6 µM | inconclusive: 0.0013 µM [rising, full curve] | inactive | – | inactive | – | inconclusive: 0.0372 µM [cytotoxic, full curve, poor fit] | – | inconclusive: 37.2 µM [cytotoxic, partial curve, poor fit] | inactive | – | –
CCC(C)(C)c1ccc(CC(C)CN2C[C@@H](C)O[C@@H](C)C2)cc1 (stereo partly specified) | inconclusive: 16.6 µM [cytotoxic, partial curve] | inconclusive: 20.9 µM [cytotoxic, partial curve] | inactive | inactive | – | – | inactive | inconclusive: 18.4 µM [cytotoxic, single point] | – | – | inactive | –
CC(=O)[C@H]1CC[C@H]2[C@@H]3CC=C4C[C@@H](O)CC[C@]4(C)[C@H]3CC[C@]12C | active: 5.96 µM and inconclusive: 23.5 µM [cytotoxic, partial curve] | inconclusive: 5.31 µM [cytotoxic, partial curve, poor fit] and inconclusive: 13.2 µM [cytotoxic, partial curve] | inactive | – | – | – | inactive | – | inactive | – | – | inactive
Clc1ccc(Nc2nnc(Cc3ccncc3)c3ccccc23)cc1 | inconclusive: 23.7 µM [cytotoxic, partial curve] and inconclusive: 16.4 µM [cytotoxic, partial curve, poor fit] and inconclusive: 23.5 µM [cytotoxic, partial curve] | inconclusive: 1.03 µM [cytotoxic, full curve] and inconclusive: 14.8 µM [cytotoxic, partial curve] | inactive | – | – | inconclusive: 4.69 µM [cytotoxic, full curve, poor fit] | inconclusive: 5.9 µM [cytotoxic, full curve, poor fit] | – | inactive | inconclusive: 20.6 µM [cytotoxic, partial curve] and inconclusive: 25.1 µM [cytotoxic, partial curve, poor fit] | inconclusive: 6.62 µM [cytotoxic, partial curve, poor fit] | –
NCCc1cnc[nH]1 | active: 13.3 µM and inconclusive: 3.72 µM [cytotoxic, full curve, poor fit] | inconclusive: 4.68 µM [cytotoxic, partial curve] | inactive | inactive | – | – | inconclusive: 0.0012 µM [rising, full curve, poor fit] | – | – | – | inconclusive: 0.0012 µM [rising, full curve, poor fit] | –
COc1cc2c(Nc3ccc(Cl)c(Cl)c3F)ncnc2cc1OCC1C[C@@H]2CN(C)C[C@@H]2C1 (stereo partly specified) | active: 1.86 µM | active: 2.31 µM and active: 2.95 µM | inconclusive: 26.3 µM [cytotoxic, single point] | – | inconclusive: 33.1 µM [cytotoxic, single point] | – | active: 20.9 µM | – | active: 23.4 µM | – | active: 20.9 µM | –
CNS(=O)(=O)Cc1ccc2[nH]cc(CCN(C)C)c2c1 | inconclusive: 26.6 µM [cytotoxic, partial curve, poor fit] | inactive | inactive | – | inactive | – | – | – | – | inconclusive: 3.26 µM [cytotoxic, full curve] | – | inactive
CCOC(=O)C1=C(C)NC(=S)NC1c1cccc(O)c1 (stereo unspecified) | inconclusive: 26.3 µM [cytotoxic, single point] | inconclusive: 29.5 µM [cytotoxic, single point] | active: 0.148 µM | – | – | active: 0.0743 µM | – | inconclusive: 35.5 µM [cytotoxic, single point] | – | – | active: 0.166 µM | active: 0.187 µM
Cn1ccc2cc3c(cc21)CCN3C(=O)Nc1cccnc1 | inactive and inconclusive: 20.9 µM [cytotoxic, partial curve] | inconclusive: 20.9 µM [cytotoxic, partial curve] | inactive | – | inconclusive: 29.6 µM [cytotoxic, single point] | – | inconclusive: 29.6 µM [cytotoxic, single point] | – | inconclusive: 33.2 µM [cytotoxic, single point] | inactive | inconclusive: 33.2 µM [cytotoxic, single point] | inconclusive: 23.5 µM [cytotoxic, single point]
